# Reference: the supplement of paper PMC3334620
# The full ranking holds about 33,000 sequences; the median of “E-score (-0.5 to 0.5)” is about -0.013, and the highest 2% start at about 0.3. Some of the results follow.
# Target: T1, Msn1 (UniProt P22148)
# T1 sequence: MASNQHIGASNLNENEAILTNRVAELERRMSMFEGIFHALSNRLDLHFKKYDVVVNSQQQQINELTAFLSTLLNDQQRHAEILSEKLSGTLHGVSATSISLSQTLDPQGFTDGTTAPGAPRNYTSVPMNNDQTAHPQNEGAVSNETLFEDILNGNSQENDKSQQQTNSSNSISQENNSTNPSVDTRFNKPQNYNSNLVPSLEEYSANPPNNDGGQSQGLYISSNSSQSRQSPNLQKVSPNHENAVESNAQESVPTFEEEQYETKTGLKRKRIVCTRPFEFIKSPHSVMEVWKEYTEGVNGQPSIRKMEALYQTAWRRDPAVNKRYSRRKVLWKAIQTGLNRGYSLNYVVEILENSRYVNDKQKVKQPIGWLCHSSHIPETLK
# Test: PBM E-score (8-mer binding enrichment) (E-score (-0.5 to 0.5)); higher = stronger / more preferred TF binding; most listed sequences are background and not binding sites
# Settings: protein concentration: 200 nM; construct: GST-full length
# Summary of the method: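 Each ungapped eight-base word and its reverse complement, pooled, received an E-score from the Universal PBM Analysis Suite. Underlying scans, normalised with masliner, recorded fluorescent anti-GST bound to GST-tagged yeast transcription factors. These were applied at about 100-200 nM to universal all-10-mer Agilent arrays double-stranded by primer extension.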
row,Sequence,PBM E-score
1,AGGATGGC,-0.155
2,CTCATTGA,-0.179
3,AAGACCAC,-0.264
4,AACTCGAT,-0.0849
5,ATAAGATA,0.149
6,CAGTGTGC,-0.161
7,AGCAGCTG,-0.176
8,CGAGAGTA,0.095
9,AGTATAAG,0.00564
10,CGACAGTC,-0.182
11,GTAGGCGA,-0.0692
12,AAACCGTT,0.0554
13,GTAGCCAA,-0.0143
14,CCAGAGAG,-0.324
15,CGCTGGCC,-0.279
16,AATCACCG,-0.17
17,AATAGGAA,0.102
18,TGCCGAAA,0.112
19,CCGCTATA,0.0419
20,GTACTCAA,0.0241
21,ACGTGGGA,-0.0982
22,AATTCGAT,0.167

row,Sequence,PBM E-score
1,AGGCTATC,-0.084
2,AGAGGTTA,-0.0665
3,CCAGACGG,-0.323
4,ACAACTCA,0.171
5,CGATGCCC,-0.154
6,ATTGGAGA,0.0726
7,AATTGGAA,-0.0457
8,CGGTGCGA,0.033
9,GAGCACCA,-0.157
10,CACACGTG,-0.0558
11,CCGCCAAG,-0.121
12,CATCCGTA,0.00081
13,CGCCTGGC,-0.134
14,ACAAGACG,0.0049
15,GATCAAGC,-0.0561
16,AGGGGTGG,-0.213
17,CAAGACTG,0.0468
18,CAGATTGA,-0.119
19,GGTGGAGA,-0.396
20,CAATAGTG,0.0652
21,CTGGTGAC,-0.204
22,GGAAAGCA,0.00386

row,Sequence,PBM E-score
1,TGTCGAAA,0.126
2,CGAACTGC,-0.0553
3,CGACTTAA,0.0893
4,CTCCTGCC,-0.238
5,GGCAATAA,0.132
6,AGAAACTG,0.128
7,ATCTAGTG,-0.189
8,AGTAAGGG,0.0152
9,GCACAATA,-0.126
10,ATTGGAAG,-0.0559
11,GATGCGAA,-0.118
12,ATGTATCC,0.0899
13,ACCCTGCC,-0.244
14,GGCTCGCA,-0.102
15,AGGAATAA,0.119
16,ACAAATCT,0.308
17,ATACCATG,0.197
18,CCGATTTA,0.109
19,ACCTAAGA,-0.0145
20,CCAAGCTA,-0.0997
21,AAATAGAG,0.0998
22,CGGGAACA,0.115

row,Sequence,PBM E-score
1,AACGACAG,-0.0454
2,GACGCCAA,-0.157
3,GAAGAGTA,-0.102
4,CCCAGAAA,0.0976
5,TAGCCGGA,-0.0178
6,GGGCAAAC,-0.00772
7,CGTTCTGC,0.0987
8,ACGTGTGG,-0.205
9,CTCGGCAC,-0.0507
10,AGTTGTGG,-0.00841
11,ACCAAGCC,-0.0985
12,AAGGCTAC,-0.138
13,ACACGTCT,0.0624
14,AAACGAGC,-0.0279
15,CTACACCA,-0.216
16,ATTCACCA,0.0317
17,CTTGTACA,0.311
18,CCAACATC,-0.00901
19,AAACCGCT,-0.0604
20,CCTGAGCC,-0.165
21,ACATGGTC,-0.0129
22,AGTTTAAT,0.211

row,Sequence,PBM E-score
1,AATCTAAG,0.00698
2,TCTTGGCA,0.125
3,CCTAACTC,-0.0997
4,CAAACGTC,0.181
5,CTCTGCCA,-0.288
6,GCATACCC,-0.0839
7,CTCGGACA,0.44
8,ATATTAAC,0.0178
9,ATAACAAC,0.154
10,GCTCGTTA,-0.0548
11,AATGGCTC,0.218
12,CGTAGGCA,-0.203
13,CTAATTGA,-0.116
14,CCACAATA,-0.105
15,ATTGTCTA,0.391
16,ATCTGATA,-0.234
17,GCAATCGC,-0.104
18,GCGGTAAA,0.161
19,ATACCTCC,-0.0821
20,ACGCTCCA,-0.179
21,CCCGCCCG,0.0671
22,ACCTCCCC,-0.0695
